The supplement of paper PMC10126150
Values marked as one replicate rest on one cluster of the flow cell; about a third of the high ones do not repeat.

What follows are sequences tested on ATP (assay: switch fluorescence ratio, 500 uM ATP over buffer (Cy3 cluster intensity, sum of 5 cycles each) (fold (ratio)); higher = stronger signal-on switching upon ATP binding; sequences stand for … in TCGTCGGCAGCGTCAGATGTGTATAAGAGACAGTTTTTTTTTTTTTTTTTTTTTTTTT…TC). Settings: aptamer strand: ATP DNA aptamer (quencher-CACCTGGGGGAGTATTGCGGAGGAAGG + anchor), 100 nM annealed; ATP concentration: 500 uM; one replicate.
In short: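 Imaging in selection buffer was followed by imaging after 15 min with 500 uM ATP at 22 °C, for Cy3-labelled switching-strand clusters annealed to 100 nM quencher-labelled ATP aptamer on a modified Illumina MiSeq flow-cell. Five of these buffer/ATP cycles ran, separated by NaOH stripping and re-annealing. The fluorescence ratio per cluster is summed target-cycle over summed buffer-cycle Cy3 intensity, averaged per switch-domain sequence; clusters outside 100-1000 RFU were removed.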
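Note: ATP exposure 15 min at 22 °C before imaging.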

Sequence	switch fluorescence ratio
GAATCGAATC	1
ATTGACTAT	1.01
AGGTATATGT	1.01
ATAAATCGCA	1.01
ACTTAACTGG	1.14
CAGTGCGAGC	1.04
AACGGCTGGG	0.997
TAAAGACACT	1.04
GTTTATCGAT	1
GACCGTTGAC	1.11
GTAAGCGTTC	0.999
GCGTGTGCAT	1.07
ATAGTGGCGG	0.974
AACCCTGCAG	1.09
CAATGCAGAT	0.971
GCGGTGCCTT	0.939
CTCCGTAGT	7.02
GATATTTAAT	0.993
GCTTCGCACG	1.53
CGTGACGCTC	1.04
GGACCGGCGG	1.01
TTGACGATTG	0.988
GCCAGACGGC	1.01

Sequence	switch fluorescence ratio
TTCCTGAGCG	0.966
TAAGACCACC	1.24
CGGGCGTCTT	1.06
GACTTCGACT	1.01
ACGAAATTGT	1.07
TATGGACCTT	0.989
GCATCAATAG	1.26
AACGGGTATC	0.977
GGTAACGCAG	1.03
CCGGCAACTG	1.28
TGCATCTCAT	0.978
TGCTACGGAA	4.33
ACTCGGTAGC	1.09
GGGTCCGGAG	0.936
AAGGATAGGT	1.03
TAACATAGGT	0.998
TATACAAGCG	1.01
CCACTTATAT	1.04
CACCTCAGGT	1.24
TTCCTAACTG	0.932
ACGAAGACGG	0.993
TCGGACTCTG	0.959
TGGGACAACC	1.02

Sequence	switch fluorescence ratio
ACCTACCC	1.44
ACTTTCTATA	1.02
CGCGAACCGG	1.02
GTCCACTTTC	1.05
TCATGTAATT	1.03
CGGTGTGATG	1.03
ATGCCGCTAC	1.75
CCACATTTGA	0.989
ACTTCCTAGG	1.89
CCGATTAATT	1.14
CCAATATATT	1.11
GGTGAGTTTT	0.996
GCGAGGCGGG	1.07
GCCGTTGGTG	1.03
TTTGGACGT	1
CTATTGGGGG	1.01
CACCGTTTGA	1.03
CTGCGATTC	3.23
TGTGCCCCCG	1
TACAAGGATA	1.03
TTGAATTTAC	1.04
GGAATAAAGG	1
TTGGAAATAG	1.02

Sequence	switch fluorescence ratio
AGCGGTCGTA	1.08
TAGCTTGGTT	0.973
ATATCGGTTG	0.991
CCAATGTGCA	1.01
AGTCTTACGG	0.971
ACTACATGCC	1.1
GCAAGTGGAC	1.08
AAAATCCATT	0.975
AAGTCAGAAG	1.02
TATTCCGTAC	2.01
TGGCGGGGT	0.958
GGCGCTCAGA	1.03
TCGAGCATTT	1.26
CCCGATGAGA	1.02
ACGAGTCAAT	3.15
CCCAGTGCTG	1.15
TACCAGCGAT	1.39
TGATTTTAAT	1.05
CGCGGGAGGC	0.949
ACTGGTAAAC	0.997
ACGGCTGGGA	0.99
GCCTTACTTG	1.07
CAAGCGCCGT	0.985

Sequence	switch fluorescence ratio
CATCGGTGGT	0.994
AGTATAGAGG	1.02
GATACAGTGT	0.991
CAATTCATAA	0.977
CGACCGGGTG	3.12
TAGCATTCCG	0.975
TTAATGCGAG	1.02
AGCAGTCTCT	1.09
CCCCGCACGT	6.39
GCATCGGAAT	1.05
GCGCAGGGCA	1.01
ATACGGCCAG	1.03
GTGGCAGAGT	1.01
TTCGCTCGGA	1.02
CAAAAACCTC	1.14
TCGGTGGAGG	0.982
GCGTATAATA	0.972
GGAATTACAT	1.03
TCGTGCATAA	1.15
TATTTCAGA	1.04
CAATATTGCT	0.988
GCTTTTGTAA	0.982
CATGTAAGC	1.02

Sequence	switch fluorescence ratio
AGACTAGCAA	1.86
TTTCTGCT	0.996
GCGTAGACGC	1.05
TATCTGCTCC	1.11
TCATGAAGGG	1.04
CGATCTTTTG	0.954
ATGGAGAGGC	0.99
ATCTTATGCG	1.03
GACAACTCGG	1
TAGAGTATAG	0.995
TAACTCTC	0.993
ACGAAATCTT	1.02
TGGTGCTCGA	0.992
ATTAAACTCT	1.09
GCCTGAGGTT	1.01
CCGTGGGCGC	1.09
CCCTGCGTCT	1.02
GACTAATAAC	0.996
ATCAAGAGTA	0.993
GGTGTCGGAA	0.998
GACCTTGATA	1.02
ATGTGCGGTG	1
GGTGGTCTTG	1.02

Sequence	switch fluorescence ratio
GGGAGCATA	1.04
TTTTTCAAGC	0.993
GGAAGCCTTT	1.19
ATATGCTACG	1
TATGAATCGA	0.979
AGGCTCGTA	1.01
ATCTTGTACC	1.05
CGACCCGTCC	1.18
CTTAGTGAGG	0.996
CCTTTGAAGT	1.04
TTGTTGACGT	1.07
TTAAGAGCGC	1.08
GTATAGTCTA	0.947
TATTTAGCGG	1.03
TTCGCCTCTA	0.983
CTGTCATTAC	3.65
AGCGTTGGGG	1
AGAGGGGAGA	1.03
GAGAATTGTT	0.99
